Drawing on PubChem BioAssay AID463173 (ICCB-Longwood Screening Facility, Harvard Medical School, 2010), this text covers survival for 91 compounds.

Out of some 52,000 compounds screened, about 1,700 (3.3%) were called active. Cut-off read from the data, not from the text of the source: active = survival mostly below about 52% (no sharp cut-off); inactive = mostly above about 56%. This is one part of the list.

In the experiment the test system is Wild type. Nature of the experiment: growth inhibition of S. aureus wild type versus tarO mutant, primary screen, teichoic acid synthesis inhibitors, RN4220, OD600 (AID 463173). The settings on record: S. aureus RN4220 wild type/DeltatarO growth, OD600, 18 h, stronger effect = lower value, screened at 18.75 µg/mL (by protocol).
Turning to `N#Cc1ccc(C=Nc2ccc(C(N)=O)cc2)cc1`, the survival is inactive: 102%.

Take `O=S(=O)(c1ccc(Cl)cc1)c1nnn2c1nc(NC1CCCC1)c1sccc12`: the survival is inactive: 79%.

Consider `CCC1Sc2ccccc2N(CC(=O)NCc2ccc(C)cc2)C1=O` (stereo unspecified), for which the survival was inactive: 79%.

As to `COc1ccc(-c2nc(Cn3c(=O)cc(C)c4c(C)nn(-c5ccccc5)c43)c(C)o2)cc1OC`, the survival was inactive: 133%.

On to `Cc1ccc(C(=O)Cn2c(-c3ccccc3)noc2=O)cc1`, for which the survival was inactive: 126%.

As to `Nc1c(C(=O)Nc2ccccc2Br)sc2nc(-c3cccs3)ccc12`, the survival was inactive: 67%.

For the compound `O=C(CSc1nc2c([nH]c3ccccc32)c(=O)n1-c1ccccc1)Nc1ccc2c(c1)OCO2`, the survival is inactive: 123%.

Turning to `Cc1noc2ncnc(N3CCN(c4cccc(C(F)(F)F)c4)CC3)c12`, the survival was inactive: 70%.

Take `Cc1cccn2c(=O)c3cc(C(=O)NCC(C)C)sc3nc12`: the survival was inactive: 80%.

In the case of `COc1ccc(N2CCN(C(CNS(=O)(=O)c3ccc(OC)c(C)c3)c3ccco3)CC2)cc1` (stereo unspecified), the survival was inactive: 71%.

Regarding `COc1ccc(C)cc1-n1c(-c2ccc(Cl)cc2)cc2c1CC(C)(C)CC2=O`, the survival is inactive: 94%.

With `Fc1ccc(CN2CCc3nc(N4CCN(c5ccccc5F)CC4)ncc3C2)c(F)c1`, the survival was inactive: 73%.

On to `CC(C)CNS(=O)(=O)c1ccc(S(=O)(=O)N2CCN(c3ccccc3)CC2)cc1`, for which the survival was inactive: 104%.

As for `Cc1ccc(NC(=O)Cn2c(=O)n(-c3ccc(C)cc3)c(=O)c3c2cnn3C)cc1`, the survival was inactive: 68%.

As to `Cc1ccc(Cc2nc3ccccc3nc2SCC(=O)N2CCC(C)CC2)cc1`, the survival is inactive: 77%.

Consider `Cc1ccc(-n2nc(C)c3c(C)c(CCC(=O)NC(C)c4ccccc4)c(C)nc32)cc1` (stereo unspecified), for which the survival is inactive: 76%.

With `COc1ccc(CCNC(=O)CCc2cn(Cc3ccccc3Cl)c3ccccc23)c(OC)c1`, the survival was inactive: 80%.

For `O=C(NCCc1ccc(Cl)cc1)C1CCN(Cc2cc3ccccc3n2Cc2ccccc2)CC1`, the survival is inactive: 89%.

Turning to `COc1cccc(C(=O)Nc2ccc3nc(SCC(=O)N(C)c4ccccc4)sc3c2)c1`, the survival is inactive: 87%.

With `CCOc1ccc(NC(=O)c2c(C)oc3nc(C)nc(N4CCCC4)c23)cc1`, the survival is inactive: 47%.

`Cc1ccc(CNC(=O)c2ccc(CSc3nc4ccncc4n3Cc3ccc(C)cc3)cc2)cc1`: the survival was inactive: 125%.

On to `Cc1cc(C)c(NC(=O)Cn2c(=O)oc3cc(S(=O)(=O)N4CCCCCC4)ccc32)c(C)c1`, for which the survival is inactive: 94%.

Take `COc1ccccc1CCNC(=O)c1cccn1-c1nnc(N2CCCC2)s1`: the survival is inactive: 74%.

As for `CCOc1ccc(-c2cc(NC(=O)c3ccccc3)c(C(=O)OC)s2)cc1`, the survival was inactive: 86%.

On to `O=C(Nc1ccccc1)c1cccc(N2CCCC2=O)c1`, for which the survival was inactive: 110%.

On to `O=C(CCCOc1ccccc1)NC1CCSC1=O` (stereo unspecified), for which the survival is inactive: 105%.

With `CC1(C)Oc2ccc3ccc(=O)oc3c2-c2cn[nH]c21`, the survival was inactive: 104%.

Take `Cc1ccc(Cl)cc1N1CCN(c2ncnc3c2nc2n3CCCC2)CC1`: the survival is inactive: 75%.

Take `O=C(CN1CCN(c2ncccn2)CC1)N1CCCC1`: the survival was inactive: 115%.

Consider `CCCN(C(=O)c1cc(S(=O)(=O)N2CCc3ccccc32)cn1C)c1ccc(OCC)cc1`, for which the survival is inactive: 76%.

Consider `CCOC(=O)c1c(C)[nH]c2c1cc(O)c1ccccc12`, for which the survival was inactive: 88%.

With `NC(=O)c1cc2n(n1)C(C(F)(F)F)CC(c1ccc(Cl)cc1)N2` (stereo unspecified), the survival is inactive: 116%.

On to `CCOc1ccc(C2C(C(=O)Nc3ccccc3)=C(C)Nc3nc(-c4ccccc4Cl)nn32)cc1OC` (stereo unspecified), for which the survival is inactive: 79%.

As to `Cc1ccccc1NC(=O)C(=O)NCC(c1ccc2c(c1)OCO2)N1CCN(c2ccccc2)CC1` (stereo unspecified), the survival was inactive: 72%.

`Cc1ccccc1NC(=O)Cn1cc(S(=O)(=O)c2ccccc2)c(=O)c2ccccc21`: the survival was inactive: 105%.

With `COc1ccc(NC(=O)c2cc3c(-c4ccccc4F)nn(C)c3s2)c(OC)c1`, the survival was inactive: 38%.

With `CCOc1ccc(Nc2cc(C)nc3nncn23)cc1`, the survival is inactive: 82%.

Turning to `CCN1CCN(Cc2c(O)ccc3oc(C)c(C(=O)Nc4cccc(Cl)c4C)c23)CC1`, the survival was inactive: 94%.

For the compound `CCCn1c2ccccc2c2cnn(CC(=O)NCCCN3CCCCC3CC)c(=O)c21` (stereo unspecified), the survival is inactive: 73%.

As to `FC(F)(F)c1cccc(N2CCN(c3ncnc4c3nc3n4CCCC3)CC2)c1`, the survival is inactive: 78%.

In the case of `CCC(C)NC(=O)c1cc(Sc2cccc(Cl)c2)nc2ccccc12` (stereo unspecified), the survival is inactive: 124%.

In the case of `Cc1ccc(S(=O)(=O)Cc2ccc(C(=O)N3CCN(c4cccc(Cl)c4)CC3)o2)cc1`, the survival is inactive: 73%.

As to `O=C(Cn1c(=O)n(-c2ccc(Cl)cc2)c(=O)c2sc3ccccc3c21)NC1CCCC1`, the survival was inactive: 91%.

As to `COCc1c(CSSCc2cnc(C)c(O)c2COC)cnc(C)c1O`, the survival is inactive: 107%.

Turning to `CCOc1ccc(-c2c(C)nn3c(C)c(C(=O)NCCc4ccc(Cl)cc4)cnc23)cc1OCC`, the survival is inactive: 64%.

On to `COC(=O)c1ccccc1NC(=O)c1cc2cc(C)ccc2n1C`, for which the survival is inactive: 109%.

For `O=C(CC1COc2ccccc2O1)NCCc1ccccc1` (stereo unspecified), the survival was inactive: 107%.

`Cc1ccccc1OCC(=O)Nc1cccc(C(=O)OCc2cc(=O)n3c(C)csc3n2)c1`: the survival is inactive: 72%.

On to `Cc1ccc(NC(=O)c2cc(S(=O)(=O)N3CCc4ccccc43)cn2C)c(Cl)c1`, for which the survival is inactive: 112%.

On to `CCc1cccc(NC(=O)C2CCC(CNS(=O)(=O)c3ccc(Br)s3)CC2)c1` (stereo unspecified), for which the survival was inactive: 127%.

As for `Cc1c(-n2c(O)c(C3=c4ccccc4=NC3=O)sc2=O)c(=O)n(-c2ccccc2)n1C`, the survival is inactive: 90%.

For the compound `c1ccc(CN2CCN(c3ncnc4c3cnn4-c3ccccc3)CC2)cc1`, the survival was inactive: 88%.

Turning to `CCc1nc2cccnc2n1-c1ccc(CC(=O)Nc2cccc(C)c2C)cc1`, the survival is inactive: 71%.

Consider `CCC1=Nc2cc(C(=O)NCCN(CC)CC)ccc2Sc2ccccc21`, for which the survival is inactive: 93%.

As to `CCc1ccc(-n2nc(CO)c(C(=O)NCCCc3ccccc3)n2)cc1`, the survival was inactive: 111%.

With `Cc1ccc(C)c(S(=O)(=O)c2nnn3c2nc(NC2CCCCC2)c2sccc23)c1`, the survival was inactive: 65%.

For `Cc1ccc(C)c(N2CCN(C(=O)NCc3noc4ccc(C)cc34)CC2)c1`, the survival is inactive: 65%.

For the compound `Cc1ccccc1Cn1c2ccccc2c2cnn(CC(=O)NCc3ccccn3)c(=O)c21`, the survival is inactive: 87%.

With `CCSc1ccccc1C(=O)Nc1ccc(-c2nc3ccccc3s2)c(O)c1`, the survival was inactive: 51%.

Turning to `CCOc1ccc(C(=O)NC2CC(=O)N(c3ccc(C)cc3)C2)cc1OCC` (stereo unspecified), the survival is inactive: 75%.

`CCOC(=O)c1cccc(NC(=O)C2Cc3ccccc3N2C(=O)c2ccccc2)c1` (stereo unspecified): the survival was inactive: 71%.

In the case of `CC1CCN(S(=O)(=O)c2ccc3c(ccn3CCC(=O)NCc3ccccc3F)c2)CC1`, the survival was active: -6%.

For the compound `Cc1ccc(-c2nc(NC(=O)CSc3nc(C)nc4sc5c(c34)CCCC5)ns2)cc1`, the survival is inactive: 68%.

For `Cc1ccc(Nc2nc3ccccc3c3nncn23)c(Cl)c1`, the survival was inactive: 132%.

In the case of `Cc1ccc(C)c(Cn2c(=O)n(C(C)C)c(=O)c3oc4ccccc4c32)c1`, the survival is inactive: 81%.

In the case of `Cc1ccccc1CNC(=O)CN1C(=O)C2CCCCN2c2ccc(C(=O)N3CCCC3)cc21` (stereo unspecified), the survival is inactive: 71%.

As to `CCc1nn(CC(=O)N2CCCCC2)c(=O)c2cc3sc(C)cc3n12`, the survival is inactive: 88%.

Regarding `Cc1ccccc1NC(=O)CCS(=O)(=O)c1cc(Br)cc2c1N(C(=O)C1CC1)CC2`, the survival was inactive: 85%.

On to `Cc1sc2c(c1C)c(=O)n(Cc1ccccc1)c(=O)n2Cc1ccc(F)cc1`, for which the survival is inactive: 96%.

Turning to `CCN(CC)CCCn1c(N)c(-c2nc3ccccc3[nH]2)c2nc(C#N)c(C#N)nc21`, the survival was inactive: 110%.

For `Cc1cccc(-n2ncc3c(Nc4ccc(C)c(Cl)c4)ncnc32)c1`, the survival was inactive: 146%.

As for `COc1ccc(NC(=O)c2c(-c3ccccc3)c(-c3ccccc3)nn(C)c2=O)cc1OC`, the survival was inactive: 80%.

Take `O=C(Nc1ccc2c(c1)N(C1CCCC1)C(=O)c1ccccc1S2)c1ccccc1F`: the survival is inactive: 98%.

Consider `COc1cccc(-n2c(CNC(=O)OC(C)(C)C)n[nH]c2=S)c1`, for which the survival is inactive: 110%.

For the compound `COc1ccc(-c2cn3cccnc3n2)cc1NC(=O)Nc1ccc(Cl)cc1`, the survival is inactive: 82%.

Take `COc1ccc2nc(C)cc(SCC(=O)O)c2c1`: the survival is inactive: 98%.

`Cc1cccc(OCc2nnc(SCC(=O)N3c4ccccc4CCc4ccccc43)o2)c1`: the survival is inactive: 129%.

With `O=C(NCC1CCCO1)c1c[nH]c2ccccc2c1=O` (stereo unspecified), the survival is inactive: 106%.

`O=C(Nc1ccc(S(=O)(=O)Nc2ncccn2)cc1)c1cc(=O)c2ccccc2o1`: the survival was inactive: 87%.

For the compound `Cc1ccc(C(=O)c2oc3ccccc3c2NC(=O)COc2ccc(C(C)C)cc2)cc1`, the survival is inactive: 69%.

As to `CCn1c(SCC(=O)N(C)C)nnc1-c1ccccc1`, the survival is inactive: 100%.

Consider `CCOc1ccc(NC(=O)c2cc(OC)nc3ccccc23)cc1`, for which the survival was inactive: 107%.

As to `O=C1CCCC/C1=N\Nc1ccc(CN2CCCCC2)cc1`, the survival is inactive: 117%.

For the compound `O=C(CC1C(=O)N(c2ccccc2)C(=O)N1Cc1ccc(F)cc1)Nc1cccc(F)c1` (stereo unspecified), the survival was inactive: 74%.

Consider `CCOC(=O)Nc1ccc(C(=O)OC)cc1`, for which the survival was inactive: 98%.

Turning to `O=C(Nc1cccc(C(=O)N2CCOCC2)c1)NC1CCCCC1`, the survival was inactive: 89%.

On to `CCOc1ccc(NC(=O)c2ccc3c(c2)CCN3S(=O)(=O)CC)cc1`, for which the survival was inactive: 93%.

With `CCN(CC)C(=O)Cn1c(=O)cc(C)c2c(C)nn(-c3ccc(C)cc3)c21`, the survival is inactive: 74%.

Regarding `COc1ccc(-c2cc(-c3ccccc3)nc3c2COc2ccc(F)cc2-3)cc1`, the survival is inactive: 80%.

As for `CC(C)c1nn2c(=O)cc(COC(=O)c3ccc(NC(=O)C4CCCCC4)cc3)nc2s1`, the survival was inactive: 68%.

Consider `Cc1ccc(CSc2ncc(Cl)c(C(=O)NCc3ccccc3)n2)cc1`, for which the survival is inactive: 94%.
